According to PubChem BioAssay AID1745849 (National Center for Advancing Translational Sciences (NCATS), 2022):
Screen size: about 2,100 compounds; about 320 (15%) were called active. Inconclusive means that the source gave no clear call. Such entries were picked first, then a sample of the others. Calls come from the whole dose curve; as a rule, active = well fitted cell-killing curve with a large enough effect; inconclusive = small, poorly fitted or top-dose-only effect, or effect the other way; inactive = flat fitted curve, though single readings scatter. Potencies beside an inconclusive call are fits to weak or partial responses and may not hold up.

Test: Viability Counterscreen for CMV-Luciferase Assay of Inhibitors of ATXN expression; note: nearly all actives have a fitted effect of over 55% in size
Conditions: HEK-293 CMV-luciferase cells viability, protease fluorescence, 24 h; activity change, negative = cytotoxicity: at the top concentration
Procedure, shortened: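 Dosing on CMV-luciferase HEK-293 cells for 24 hr, 37 °C. Luminescence read with SteadyGlo; cytotoxicity measured first as Gly-Phe-AFC protease fluorescence, 25 uM final substrate, 30 min.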
% is set by controls: 0 for no effect and ±100 for the full control effect; potency is the fitted concentration of half-maximal effect; tags give direction and shape of the fitted curve.

Row | SMILES | Potency | activity change, negative = cytotoxicity
1 | Cc1ccc(Cc2cnc(NC(=O)/C(C#N)=C/c3ccc(-c4cccc([N+](=O)[O-])c4)o3)s2)cc1 | active: 20 µM | 
2 | CCn1c(C)cc(C(=O)COC(=O)c2ccccc2[N+](=O)[O-])c1C |  | inactive: -4.45% [at 57.5 µM]
3 | CCN1CCN(c2cc(C(C)C)nc3c(-c4ccccc4)c(C)nn23)CC1 |  | inactive: -25.5% [at 57.5 µM]
4 | Oc1ccccc1C(Nc1nccs1)c1ccc2cccnc2c1O (stereo unspecified) | inconclusive: 2.82 µM [cytotoxic, partial curve, poor fit] | 
5 | Cc1nc(N=C(N)N)nc2c(C)cccc12 | active: 8.91 µM | 
6 | Cc1nc2c(OCc3ccc(C(F)(F)F)cc3)cccn2c1N(C)CC1CC1 | inconclusive: 8.91 µM [cytotoxic, single point] | 
7 | CC[C@H]1CN2CCc3cc(OC)c(OC)cc3C2C[C@@H]1C[C@H]1NCCc2cc(OC)c(OC)cc21 (stereo partly specified) | active: 0.316 µM | 
8 | CCCCn1c(=N)n(CCOc2ccc(C)cc2)c2ccccc21 | inconclusive: 5.62 µM [cytotoxic, full curve, poor fit] | 
9 | Oc1ccc2ccccc2c1/C=C/c1ccc2c(Br)cc(Br)c(O)c2n1 |  | inactive: 12.1% [at 57.5 µM]
10 | CC(C)COCc1ccc(O)c2ncccc12 |  | inactive: -13.8%
11 | CC1(C(=O)NC2CCN(Cc3ccccc3)CC2)CCN1Cc1ccc2ccccc2c1 (stereo unspecified) |  | inactive: -17.7%
12 | O=C(N/N=C/c1cc(Br)ccc1O)c1ccncc1 |  | inactive: -12.8%
13 | CS(=O)(=O)N(CC(O)CON=C1c2ccccc2-c2ccccc21)c1ccc(F)cc1 (stereo unspecified) |  | inactive: -19.1%
14 | Cc1ccc(OCC(=O)N2CCN(c3nnc(-c4ccc(C)cc4)c4ccccc34)CC2)cc1 | inconclusive: 8.91 µM [cytotoxic, single point] | 
15 | COc1cccc(-c2ccc(NC(=O)C3CCCN(Cc4cnn(C(C)C)c4)C3)cc2)c1 (stereo unspecified) | inconclusive: 6.31 µM [cytotoxic, single point] | 
16 | O=C(CSc1n[nH]c(-c2ccccn2)n1)Nc1ccc(F)cc1 | active: 17.8 µM | 
17 | CCc1cc(C)cc(OCCNC(=O)c2cncc(Br)c2)c1 | inconclusive: 17.8 µM [cytotoxic, single point] | 
18 | CN(C)CCCN(C(=O)c1ccc(S(=O)(=O)N(C)Cc2ccccc2)cc1)c1nc2c(F)cccc2s1 | inconclusive: 12.6 µM [cytotoxic, partial curve, poor fit] | 
19 | CCSc1nc2ccccc2n1C(=O)/C=C\c1ccc(OC)c(OC)c1 | active: 4.47 µM | 
20 | O=C(Nc1ccc(NC(=O)c2ccc(Cl)cc2Cl)cc1)c1cccs1 |  | inactive: -25.7% [at 57.5 µM]
21 | S=C(Nc1ccc(Cl)c(Cl)c1)NC1CCCCC1 | inconclusive: 39.8 µM [cytotoxic, single point] | 
22 | CCn1c2ccccc2c2cc(/C=N/NC(=O)c3ccccc3)ccc21 | inconclusive: 3.16 µM [cytotoxic, full curve, poor fit] | 
23 | Cc1nn(-c2ccccn2)c2c1C(=O)CC(C)(C)C2N=[N+]=[N-] (stereo unspecified) |  | inactive: 2.56%
24 | Cc1cc(C)n(CCC(=O)N/N=C/c2ccc(O)cc2O)n1 |  | inactive: -20.7%

Row | SMILES | Potency | activity change, negative = cytotoxicity
25 | COc1ccccc1-n1c(-c2ccccc2)c[n+]2c1CCc1ccccc1-2 | active: 10 µM | 
26 | COC1C=CC=C(C)C(=O)NC2=CC(=O)C(N)=C(CC(C)CC(OC)C(O)C(C)C=C(C)C1OC(N)=O)C2=O (stereo unspecified) | inconclusive: 8.91 µM [cytotoxic, partial curve, poor fit] | 
27 | CC(=O)Nc1cccc(-c2ccnc3c2CC(C)(C(=O)Nc2ccc(Cl)cc2)O3)c1 (stereo unspecified) | inconclusive: 5.01 µM [cytotoxic, partial curve, poor fit] | 
28 | CC1CCCCC1NC(=O)/C(C#N)=C/C=C/c1ccccc1[N+](=O)[O-] (stereo unspecified) | inconclusive: 2.24 µM [cytotoxic, partial curve] | 
29 | O=C(Nc1ccc([N+](=O)[O-])cc1)Nc1ccc(Cl)cc1F | inconclusive: 2.82 µM [cytotoxic, partial curve] | 
30 | CCOC(=O)C1CCN(C(=O)c2c(C)oc3c2C(=O)c2ccccc2C3=O)CC1 | active: 15.8 µM | 
31 | O=c1cc(Nc2ccc3c(c2)OCCO3)[nH]c(=O)n1-c1ccc(Br)cc1 | inconclusive: 22.4 µM [cytotoxic, single point] | 
32 | CN1Cc2c(N3CCOCC3)nc3sc(C(=O)c4ccccc4)c(N)c3c2CC1(C)C | inconclusive: 4.47 µM [cytotoxic, partial curve, poor fit] | 
33 | CN(C(=O)c1cnc(N2CCN(c3ncccn3)CC2)c2ccccc12)c1ccc(Cl)cc1 | inconclusive: 35.5 µM [cytotoxic, single point] | 
34 | N#Cc1ccc(-c2nc3cc(Cl)ccc3c(=O)n2O)cc1 |  | inactive: -23.8%
35 | O=[N+]([O-])c1c(Nc2ccccn2)cc(Cl)c2nonc12 | active: 11.2 µM | 
36 | O=C(Nc1ccc(SC(F)F)cc1)c1cc(-c2ccncc2)nc2ccccc12 | inconclusive: 3.98 µM [cytotoxic, single point] | 
37 | O=C(Cc1ccccc1)N/N=C/c1cc(Br)cc(Br)c1O |  | inactive: -0.659%
38 | CCOC(=O)c1ccc2ncc(C(=O)OCC)c(Nc3ccc(N4CCOCC4)cc3)c2c1 | inconclusive: 3.16 µM [cytotoxic, single point] | 
39 | CCOC(=O)c1ccc(/C=C2/C=C(c3ccccc3)N(c3ccc(Cl)c(C(=O)O)c3)C2=O)cc1 | inconclusive: 11.2 µM [cytotoxic, partial curve, poor fit] | 
40 | COc1ccc2c(c1)CCCN2S(=O)(=O)c1ccc(Cl)cc1 | inconclusive: 39.8 µM [cytotoxic, single point] | 
41 | Cc1cc(C)c2nc(NNC(=O)c3ccc(S(=O)(=O)N4CCc5ccccc5C4)cc3)sc2c1 | inconclusive: 4.47 µM [cytotoxic, full curve] | 
42 | COc1cccc(-c2nc(N3CCN(C)CC3)c3ccccc3n2)c1O | inconclusive: 2 µM [cytotoxic, partial curve] | 
43 | Cc1cc2oc3ccc(NCCC4CCCN4C)cc3c(=O)c2cc1C (stereo unspecified) | inconclusive: 25.1 µM [rising, partial curve] | 
44 | Cn1c(CO)c(-c2ccccc2)c2cc([N+](=O)[O-])ccc21 |  | inactive: 3.4%
45 | CC(C)COc1cccc(C(=O)N(CC(=O)Nc2ccccc2C(F)(F)F)Cc2ccco2)c1 |  | inactive: -29%
46 | Cc1nc2c(OCc3cc(Cl)cc(Cl)c3)cccn2c1N(C)C(=O)CCC1CCCC1 | inconclusive: 39.8 µM [cytotoxic, single point] | 
47 | COc1ccc(S(=O)(=O)Nc2ccc(F)cc2)cc1N(C)S(=O)(=O)c1ccc(Cl)cc1 | inconclusive: 25.1 µM [cytotoxic, partial curve] | 
48 | COc1cc2nc(N(C)C)nc(N)c2cc1OC | active: 25.1 µM | 

Row | SMILES | Potency | activity change, negative = cytotoxicity
49 | Cc1sc2ncnc(NCC(O)c3ccc([N+](=O)[O-])cc3)c2c1C (stereo unspecified) | inconclusive: 12.6 µM [cytotoxic, partial curve, poor fit] | 
50 | Cc1cc(=O)oc2c1c(C)nn2-c1cccc(Cl)c1 |  | inactive: 0.11%
51 | COc1cc(C(=O)N/N=C(\c2ccccc2)c2ccccn2)cc(OC)c1OC | inconclusive: 0.708 µM [cytotoxic, full curve] | 
52 | CCCc1cc(NCc2ccccn2)n2nc(C)c(-c3ccccc3)c2n1 |  | inactive: -18.3%
53 | CN1C(=O)/C(=C\c2ccccc2F)Sc2ccc(C(=O)NC3CCN(Cc4ccccc4)CC3)cc21 |  | inactive: 1.37%
54 | CCOC(=O)Cc1cc(=O)n2[nH]c(C)c(-c3ccc(Cl)cc3)c2n1 | inconclusive: 22.4 µM [cytotoxic, partial curve, poor fit] | 
55 | CN1CCC(NC(=O)c2cc(-c3cccc(Br)c3)nc3ccccc23)CC1 | inconclusive: 11.2 µM [cytotoxic, partial curve] | 
56 | COc1ccc(C2CC(c3cccc(Cl)c3)=NN2c2ccc(S(N)(=O)=O)cc2)cc1 (stereo unspecified) | inconclusive: 35.5 µM [rising, partial curve] | 
57 | CC(C)(C)S(=O)(=O)/C(C#N)=N/Nc1ccc(Cl)cc1 | active: 25.1 µM | 
58 | CCOC(=O)c1sc2nc(C)nc(SC(C)C(=O)N(C)c3ccccc3)c2c1C (stereo unspecified) | inconclusive: 2.24 µM [cytotoxic, partial curve] | 
59 | COc1ccc(C(=O)N2CCN(c3nc(C4CC4)nc4sc(C)c(C)c34)CC2)cc1 | inconclusive: 39.8 µM [cytotoxic, single point] | 
60 | CCC(CC)C(=O)c1c[nH]c(C(=O)NCc2ccccn2)c1 |  | inactive: 3.69% [at 57.5 µM]
61 | CC(=O)NC(c1ccco1)c1cc(Cl)c2cccnc2c1O (stereo unspecified) |  | inactive: -1.71% [at 57.5 µM]
62 | CC(=O)Oc1ccc(N(C(C)=O)S(=O)(=O)c2ccc(Cl)cc2)c2ccccc12 | inconclusive: 31.6 µM [cytotoxic, single point] | 
63 | CC1CC(C)C[N+](=C2C=C(N3CCCC3)CC(C)(C)C2)C1 (stereo unspecified) | inconclusive: 3.16 µM [cytotoxic, partial curve] | 
64 | CC(C)C(=O)Nc1ccc(C(=O)N/N=C/c2cc(Br)cc(Br)c2O)cc1 |  | inactive: 17.3% [at 57.5 µM]
65 | Cc1cc(O)c(C(C)C)cc1N=Cc1ccc(N(C)C)cc1 | inconclusive: 3.98 µM [rising, partial curve] | 
66 | O=C1C(SCCO)=C(SCCO)C(=O)c2ccccc21 | inconclusive: 31.6 µM [rising, partial curve] | 
67 | CC(SC(C)C(=O)NN=Cc1cccc(Cl)c1)C(=O)NN=Cc1cccc(Cl)c1 (stereo unspecified) |  | inactive: -17.2%
68 | N#C/C(=C\C=C\c1ccccc1[N+](=O)[O-])C(=O)NCc1ccccc1 | active: 3.16 µM | 
69 | COc1cc(/C=C/C(=O)CC(=O)/C=C/c2ccc(O)c(OC)c2)ccc1O | inconclusive: 39.8 µM [rising, single point] | 
70 | COC(=O)Cc1ccc(NC(=S)N2CCN(c3cc(Cl)ccc3C)CC2)cc1 | inconclusive: 15.8 µM [cytotoxic, partial curve] | 
71 | Cc1cc(C)cc(NC(=O)CCC(=O)Nc2cc(C)on2)c1 |  | inactive: 16.8%
